Measurements as given in the supplement of paper PMC11383711.
Some of the results follow. Binding of human antibodies (heavy:light variable regions, tested as scFv in one mRNA-display pool) to influenza hemagglutinin, with or without the stem antibody CR9114 bound first. Score = (mean enrichment − median) / interquartile range of that screen; higher = more enriched, 0 = typical non-binder. Active = above the paper's cut-off per screen: stems 28; unblocked H1 Solomon Islands 5, H1 Michigan 3, H3 5, H5 19, H7 2.85, both B 5; blocked 9, 7, H5 10, H7 10, B Phuket 10, B Lee 11.5. Scores are scaled within each screen and are no affinities; replicates correlate at about 0.6 to 0.9, and antibodies rare in the pool are noisier.

B1: antibody 3E06 (protein)
chain 1: VQLQESGPGLVKPSETLSLNCTVSGGSIITSSLYWGWIRQPPGKGLEWIGCIYVDGSTYYNPSLTSRVTISVDTSKNQFSLSLTSVTAQDTAVYYCARPTGEGGGAFDIWGQGTMVTVSS
chain 2: DIQMTQSPSTLSASVGDRVTITCRASQSISIWLAWFQQKPGKAPKLLIYKASTLETGVPSRFSGSGSGTEFTLTISSLQPDDFATYYCQQYNIYWTFGQGTKVEIK
B2: K77-2F08 (protein)
chain 1: EVQLVESGEGVVHPGTSLRLSCAASGFTFGSYGLHWVRQAPGKGLEWVAFISYDGGEKSYADSLKGRFAISRDKSKNVLYLEMNTLRAEDTALYSCARTWNSYFFDQWGQGTLVTVSS
chain 2: QSALTQPASVSGSPGQSITISCTGTGSDVGIYNLVSWYQHHPGKAPKFMIYEVSERPSGVSSRFSGSKSGNTASLTISGLQAEDEANYYCCSYAGSNTWVFGGGTKLTVL
B3: antibody 1G03 (protein)
chain 1: EVQLVETGGGLIQPGGSLRLSCAASGFIVSSNYMSWVRQAPGKGLEWVSVIYGGSSTYYADSVKGRFIISRDNSKSTLYLQMNSLRAEDTAVYYCARGPADIVAAGTYPYYYYAMDVWGQGTTVTVSS
chain 2: DIQMTQSPDSLAVSLGERATINCKSSQSVLYSSNNKNYLAWYQQKPGQPPKLLIYWASTRESGVPDRFSGSGSGTNFTLTIRSLQAEDVAVYYCQQYYITPYTFGQGTKVEIK
B4: C1-B01 (protein)
chain 1: VQLVESGGGLVQPGGSLRLSCAASGFPFATYSMNWVRQAPGKGLEWLSYISSSSATVFYADSVKGRLTISRDNAKNSLYLQMYSLRAEDTAVYYCAREEVVVAGTPFDSWGQGALVTVSS
chain 2: EIVMTQSPATLSVSPGERATLSCRASQSVGSRLAWYQQKPGQPPRLLLYDASTRATDIPARFSGTGYGTEFTLTISSIQSEDFAVYHCHQYSGWPPWTFGQGTKVEIK
B5: W85-2F03 (protein)
chain 1: EVQLVESGGGLVQPGRSLRLSCTTSEFTFDEYTMSWVRQAPGKGLEWVGFIGSKAYRGTTEYAASVKGRFTISRDDFRSIAYLQMNSLKTEDTAVYYCTRDSGFGDYFDYWGQGTLVTVSS
chain 2: QSALTQPASVSGSPGQSITISCTGTSGDIGGYNYVSWYQQHPGKAPKLMIYDVSNRPSGVSNRFSASQSGKTASLTISGLQAEDEADYYCFSFTSTSTWVFGGGTKLTVL
B6: K77-2A09 (protein)
chain 1: EVQVVESGGTVVQPGGSLTLSCTTSGFTFDNFAMHWVRQAPGKGLEWVALVGWDSAVIYYADSVQGRFNISRDNSKNSLYLQMNSLRAEDTALYYCAKDDDPGNYGYFHYSLDVWGQGTAVTVTS
chain 2: DVVMTQSPLSLPVTLGQPASISCRSSQSLVDSYGDTYLNWFQQRPGQSPRRLIYKVSNRDSGVPDRFSGSGSGTDFTLKISRVEADDVGVYYCMQGTHWPLTFGGGTKVEI
B7: R95-2H06 (protein)
chain 1: EVQLVESGGVVQQPGGALRLSCAASGLTFDEYAMHWVRQAPGKGLEWVSLITWDGGTTYYADSVKGRFTISRDNSKNSLYLQMNSLRPEDSGLYYCAKDPYGSGSAGWFDPWGQGTLVTVSP
chain 2: DIQMTQSPSSLSASVGDRVNITCRASQSIIFYLNWYQQRPGKAPKLLIYHASILQSGVPSRFTGSGSGTDFTLTISSLQPEDLATYYCQQSYSIPLTFGGGTKVEIK
B8: R95-2E12 (protein)
chain 1: QVQLQESGPGLVKPSETLSLTCVVSDGSISSSTYYWGWIRQPPGKGLEWIGSIYYSGDTYYNPSLKSRVITSVDTSKNQFSLKLSSVTAADTAVYYCARHGPWQLSYFDYWGQGTLVTVSS
chain 2: QSALTQPRSVSGSPGQSVTISCTGTGSRVGGYHYVSWYQQHPGKAPKLMIYEVNKRPSGVPDRFSGSQSGNTASLTISGLQAEDEADYYCCSYAGSFLLFGGGTKLSV
B9: 56.d.01 (protein)
chain 1: EVQLVESGGGLVQPGGSLRLSCSASGFTVSNYAMHWVRQAPGKGLEYVSAISVNGFSTFYTDSVKGRFTISKDNSKNTLYLQMSSLRPEDTAVYYCVKAESYDFWSGYDWGQGTQVTVSS
chain 2: EIVLTQSPGTLSLSPGERATLSCRASQSVSSSSLAWYQQKPGQAPRLLIFGASSRATGIPDRFSGSGSGTDFTLTISRLEPEDFAVYYCQQYGSLGTFGGGTKVEIK
B10: K77-1C12 (protein)
chain 1: EVQLVESGGGVVQPGGSLRLSCAASGFTFSNYGMHWVRQAPGKGLEWVAFIRYDGSNEYYGDSAKGRFTISRDNSKNTLYLQLISLRPDDTAVYYCANEPDPQSGGLRNDGVVHHDHWGQGTLVTVSS
chain 2: QSALTQPVSVSGSPGQSITISCTGTSFDVGGYHYVSWYQQYPGKAPKLMIYDVSKRPSGVSNRFSGSKSGITASLTISGLQAEDEADYHCGSYTSSYTWVFGGGTKLTVL
B11: antibody 4D06 (protein)
chain 1: VQLVESGGGVVQPGTSLRLSCVASEFTFSSSGMHWVRQAPGKGLEWVAIISYDGRKKYYVDSVEGRFTISRDNSKNTLYLQMNSLRVEDTAIYYCAKASTVTKRYNWFDPWGQGTLVTVSS
chain 2: DIQMTQSPSSLSASVGDRVTITCRASESISSYLNWYQQRPGKAPKLLIYAASSLQTGVPSRFSGSGSGTDYTLTISSLQPEDFATYFCQQSYSTPLTFGPGTKVDIK
B12: AG2-B02 (protein)
chain 1: VQLVQSGAEVKKPGESLKISCRASGYNFDRHWIGWVRQTPGKGLEWMAIIYPHDSGHRYSPAFEGQVAISADKSTSTAYLQWSSLKASDTATYYCAKLPSKYYYDNSGPFDVWGQGTLVTVSS
chain 2: AIQLTQSPSSLSASVGDRVTITCRASESVITALAWYQQRPGRAPRLLISDASTLQNGVPSRFSGSGSGTDFALTITSLQPEDFATYYCQQYETGPTFGQGTRLEIK

biological target: Influenza A H1N1 A/Michigan/45/2015 hemagglutinin ectodomain; experiment: mRNA display binding score; higher = more enriched on the antigen; settings: antigen blocked with: 2 µM CR9114 IgG
Procedure: (§1)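 A pool of natively paired antibodies, displayed as scFv on mRNA, was selected once on antigen-coated beads and sequenced before and after; two replicates.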

Binder | mRNA display binding score
B1 | inactive: 0.288
B2 | inactive: -0.375
B3 | inactive: -0.252
B4 | inactive: -0.552
B5 | inactive: -0.199
B6 | inactive: 0.111
B7 | inactive: -0.0579
B8 | inactive: -0.211
B9 | inactive: -0.32
B10 | inactive: -0.54
B11 | inactive: 0.416
B12 | inactive: 4.18

same assay, conditions: antigen blocked with: nothing

Binder | mRNA display binding score
B1 | inactive: 1
B2 | inactive: 0.134
B3 | inactive: -0.508
B4 | inactive: 0.803
B5 | inactive: -0.473
B6 | inactive: -0.165
B7 | inactive: -0.327
B8 | inactive: -0.66
B9 | inactive: 0.0501
B10 | inactive: -0.64
B11 | active: 3.11
B12 | inactive: -0.172

biological target: Influenza A H1N1 A/Solomon Islands/3/2006 hemagglutinin ectodomain; experiment: as above; settings: antigen blocked with: 2 µM CR9114 IgG
Procedure: as §1

Binder | mRNA display binding score
B1 | inactive: 0.0349
B2 | inactive: -0.172
B3 | inactive: -0.878
B4 | inactive: -0.662
B5 | inactive: 0.357
B6 | inactive: 1.3
B7 | inactive: -0.0877
B8 | inactive: -0.604
B9 | inactive: 0.167
B10 | inactive: -0.524
B11 | inactive: -0.078
B12 | active: 270

same assay, conditions: antigen blocked with: nothing

Binder | mRNA display binding score
B1 | inactive: 0.748
B2 | inactive: -0.0516
B3 | inactive: 0.212
B4 | inactive: 0.817
B5 | inactive: -0.305
B6 | inactive: 0.56
B7 | inactive: -0.52
B8 | inactive: -0.579
B9 | inactive: -0.214
B10 | inactive: -0.467
B11 | active: 6.75
B12 | active: 233

biological target: Influenza A H3N2 A/Singapore/INFIMH-16-0019/2016 hemagglutinin ectodomain; experiment: as above; settings: antigen blocked with: nothing
Procedure: as §1

Binder | mRNA display binding score
B1 | inactive: 1.15
B2 | inactive: -0.52
B3 | inactive: 2.43
B4 | inactive: -0.444
B5 | inactive: 0.243
B6 | inactive: -0.147
B7 | inactive: -0.483
B8 | inactive: -0.0865
B9 | inactive: 1.18
B10 | inactive: -0.131
B11 | inactive: 0.765
B12 | inactive: -0.0931

biological target: Influenza A H5N1 A/Qinghai/1A/2005 hemagglutinin ectodomain; experiment: as above; settings: antigen blocked with: 2 µM CR9114 IgG
Procedure: as §1

Binder | mRNA display binding score
B1 | inactive: 0.598
B2 | inactive: -0.847
B3 | inactive: -0.453
B4 | inactive: -0.782
B5 | inactive: -0.386
B6 | inactive: 1.01
B7 | inactive: 0.286
B8 | inactive: -0.865
B9 | inactive: -0.25
B10 | inactive: -0.852
B11 | inactive: 0.617
B12 | inactive: 3.27

same assay, conditions: antigen blocked with: nothing

Binder | mRNA display binding score
B1 | inactive: 0.331
B2 | inactive: 0.0752
B3 | inactive: -0.212
B4 | inactive: 0.293
B5 | inactive: -0.0911
B6 | inactive: -0.0793
B7 | inactive: -0.243
B8 | inactive: -0.548
B9 | inactive: 0.69
B10 | inactive: -0.714
B11 | inactive: 1.76
B12 | inactive: 2.18

biological target: Influenza A H7N9 A/Shanghai/2/2013 hemagglutinin ectodomain; experiment: as above; settings: antigen blocked with: 2 µM CR9114 IgG
Procedure: as §1

Binder | mRNA display binding score
B1 | inactive: 0.0849
B2 | inactive: 0.222
B3 | inactive: -0.23
B4 | inactive: -0.216
B5 | inactive: 0.486
B6 | inactive: -0.907
B7 | inactive: -0.144
B8 | inactive: -0.387
B9 | inactive: -1.01
B10 | inactive: -0.453
B11 | inactive: 1.55
B12 | inactive: 2.72

same assay, conditions: antigen blocked with: nothing

Binder | mRNA display binding score
B1 | inactive: 1.09
B2 | inactive: 0.216
B3 | inactive: -0.207
B4 | inactive: 0.0972
B5 | inactive: -0.154
B6 | inactive: 0.0835
B7 | inactive: -0.118
B8 | inactive: -0.588
B9 | inactive: -0.0636
B10 | inactive: -0.78
B11 | inactive: 0.67
B12 | inactive: 0.096

biological target: Influenza B/Lee/1940 hemagglutinin ectodomain; experiment: as above; settings: antigen blocked with: 2 µM CR9114 IgG
Procedure: as §1

Binder | mRNA display binding score
B1 | inactive: -0.279
B2 | inactive: 0.897
B3 | inactive: 0.567
B4 | inactive: 0.371
B5 | inactive: 1.25
B6 | inactive: 1.75
B7 | inactive: 0.198
B8 | inactive: -0.163
B9 | inactive: -0.269
B10 | inactive: -0.096
B11 | inactive: 0.914
B12 | inactive: 0.0646

same assay, conditions: antigen blocked with: nothing

Binder | mRNA display binding score
B1 | inactive: 0.235
B2 | inactive: -0.16
B3 | inactive: 0.583
B4 | inactive: -0.0849
B5 | inactive: -0.0475
B6 | inactive: 0.734
B7 | inactive: -0.295
B8 | inactive: -0.454
B9 | inactive: -0.229
B10 | inactive: -0.424
B11 | inactive: 3.09
B12 | inactive: 0.544

biological target: Influenza B/Phuket/3073/2013 hemagglutinin ectodomain; experiment: as above; settings: antigen blocked with: 2 µM CR9114 IgG
Procedure: as §1

Binder | mRNA display binding score
B1 | inactive: 0.566
B2 | inactive: -0.432
B3 | inactive: -0.159
B4 | inactive: -0.219
B5 | inactive: 0.355
B6 | inactive: 0.54
B7 | inactive: -0.258
B8 | inactive: -0.692
B9 | inactive: -0.588
B10 | inactive: 0.373
B11 | inactive: 0.374
B12 | active: 10.5

same assay, conditions: antigen blocked with: nothing

Binder | mRNA display binding score
B1 | inactive: -0.00335
B2 | inactive: -0.064
B3 | inactive: 0.576
B4 | inactive: 0.468
B5 | inactive: -0.137
B6 | inactive: 1.05
B7 | inactive: -0.471
B8 | inactive: -0.4
B9 | inactive: -0.248
B10 | inactive: -0.161
B11 | inactive: 3.01
B12 | active: 8.63
